# Results: PubChem BioAssay AID463173 (ICCB-Longwood Screening Facility, Harvard Medical School, 2010)
# The campaign covered roughly 52,000 compounds. About 1,700 (3.3%) were called active. No stated cut-off is given here; in the data, active means survival mostly below about 52% (no sharp cut-off); inactive means mostly above about 56%. The list shows a part of the results.
# Test system: Wild type
# Test: growth inhibition of S. aureus wild type versus tarO mutant, primary screen, teichoic acid synthesis inhibitors, RN4220, OD600 (AID 463173)
# Conditions: S. aureus RN4220 wild type/DeltatarO growth, OD600, 18 h, stronger effect = lower value, screened at 18.75 µg/mL (by protocol)
row,SMILES,survival
1,Cc1cccc(OCC(=O)NCCc2nc3ccccc3[nH]2)c1C,inactive: 73%
2,O=C(NCc1ccccc1Cl)C1CCN(C(=O)N2CCOc3ccccc32)CC1,inactive: 83%
3,CCCN(CCC)CCNC(=O)CN1C(=O)COc2ccc(S(=O)(=O)N3CCOCC3)cc21,inactive: 77%
4,CCOc1ccc(-n2nc(CO)c(C(=O)NCc3ccccn3)n2)cc1,inactive: 90%
5,Cc1ccc(OCCCCn2cnc3ccccc32)cc1,active: 29%
6,CCN(CC)S(=O)(=O)c1ccc2c(c1)nc(CN(C)C(=O)Nc1ccc(F)cc1)n2C,inactive: 89%
7,CS(=O)(=O)c1ccccc1-c1nnc(NC(=O)c2ccc3c(c2)OCCO3)o1,active: -6%
8,COc1ccc(CNC(=O)CSc2n[nH]c(-c3ccc(F)cc3)n2)cc1,inactive: 120%
9,O=C(Nc1nc2n(n1)C(c1ccccc1)C=C(c1ccccc1)N2)c1ccccc1 (stereo not drawn),inactive: 88%
10,COc1cc(Cl)c(C)cc1NC(=O)CCc1c(C)nc2c3cccnc3nn2c1C,inactive: 85%
11,O=C(Nc1ccc(C(=O)N2CCCCC2)cc1)c1nsc2ccccc12,inactive: 59%
12,COc1ccc(CNC(=O)CN(c2ccc(C)cc2)S(=O)(=O)c2c(C)noc2C)cc1,inactive: 83%
13,COc1ccc(CNC(=O)C(CCSC)NS(=O)(=O)c2ccc3c(c2)oc(=O)n3C)cc1 (stereo not drawn),inactive: 73%
14,Fc1ccc(Nc2nc(SCc3cccc(Cl)c3)nc3ccccc23)cc1,inactive: 79%
15,Cc1ccc(C)c(CN2C(=O)c3ccccc3S(=O)(=O)c3ccc(C(=O)Nc4cc(F)ccc4F)cc32)c1,inactive: 91%
16,COc1ccc(NC(=O)c2nnn(CC(=O)Nc3c(C)cc(C)cc3C)c2N)cc1OC,inactive: 63%
17,CNC(=O)C(=O)NCC(c1ccc2c(c1)OCO2)N1CCOCC1 (stereo not drawn),inactive: 113%
18,Cc1cc(C)cc(NC(=O)CSc2nc3c([nH]c4ccccc43)c(=O)n2-c2ccc(F)cc2)c1,inactive: 118%
19,CN(CCc1ccccn1)Cc1ccccc1,inactive: 93%
20,CCOc1ccc(-c2cc(NC(=O)c3cccc(Cl)c3)c(C(=O)OC)s2)cc1,inactive: 81%
21,CCCOc1ccc(C(=O)Nc2nonc2-c2ccc(OCC)cc2)cc1,inactive: 91%
22,CC(=O)N(Cc1cccnc1)Cc1cc2cc3c(cc2n2nnnc12)OCO3,inactive: 102%

row,SMILES,survival
1,CC1=C(C(=O)Nc2ccccc2)C(c2ccc(C)cc2)n2nc(SCc3ccccc3C)nc2N1 (stereo not drawn),inactive: 84%
2,O=C(c1ccc(F)cc1F)N1CCC(c2nc(-c3ccc(S(=O)(=O)N4CCCC4)cc3)no2)CC1,inactive: 99%
3,O=C1CCCC(O)=C1C=NCc1cccnc1,inactive: 105%
4,COc1ccc(CNC(=O)C2=C(C)C(=O)OC23CCCCC3)cc1OC,inactive: 80%
5,CCOC(=O)c1ccc(NC(=O)c2cn(-c3ccccc3)nc2-c2ccc(C)cc2)cc1,inactive: 81%
6,O=C(C1CCN(S(=O)(=O)c2ccccc2)CC1)N1CCCCC1,inactive: 96%
7,Cc1oc2cc3oc(=O)c(CC(=O)N4CCCCC4)c(C)c3cc2c1C,inactive: 82%
8,CC(=O)Nc1ccc(/C=C2/SC(=Nc3ccccc3)NC2=O)cc1,inactive: 106%
9,CCCc1ccc(S(=O)(=O)N2CCC(c3nnnn3-c3ccc(OC)cc3)CC2)cc1,inactive: 85%
10,N#CC1=C2SCN(C3CCCCC3)CN2C(=O)CC1c1ccc(Br)cc1 (stereo not drawn),inactive: 84%
11,CCN(CC)C(=O)c1cc(-c2ccccc2)on1,inactive: 119%
12,CCOc1cc(C#N)c(NC(=O)c2ccc(OC)c(S(=O)(=O)N3CCN(c4ccccc4)CC3)c2)cc1OCC,inactive: 116%
13,CCOC(=O)C1CCN(CC(=O)N2C(C)CCCC2C)CC1 (stereo not drawn),inactive: 108%
14,CCCOc1ccc(CNC(=O)c2oc3ccc4c(c3c2C)C(=O)CC(C)(CC)O4)cc1 (stereo not drawn),inactive: 70%
15,COc1ccc(CNC(=O)Cn2c(=O)c3cccn3c3ccccc32)cc1,inactive: 84%
16,CSc1nc(-c2ccccc2Cl)nc2c1Cc1c(CO)cnc(C)c1O2,inactive: 109%
17,CCc1nnc2c(N3CCN(c4cccc(C(F)(F)F)c4)CC3)nc3ccccc3n12,inactive: 120%
18,O=C1C2=C(Nc3ncnn3C2c2ccccc2)c2ccccc21 (stereo not drawn),inactive: 114%
19,O=C(Cn1c(=O)n(Cc2ccco2)c(=O)c2oc3ccccc3c21)Nc1ccc(F)c(Cl)c1,inactive: 23%
20,COc1ccc(N(CC(=O)N2CCc3ccccc3C2)S(=O)(=O)c2ccc(C)cc2)cc1Cl,inactive: 71%
21,COc1cccc(CNc2ncnc3onc(C)c23)c1,inactive: 140%
22,O=C(Nc1c(C(=O)N2CCN(c3ccccc3F)CC2)oc2ccccc12)c1ccco1,inactive: 69%

row,SMILES,survival
1,O=C(CSc1nc(-c2ccco2)cc(C(F)(F)F)n1)N1CCCC1,inactive: 98%
2,CN1CCN(CCCNC(=O)c2cnn(-c3ccc(F)cc3)c2-n2cccc2)CC1,inactive: 84%
3,CNc1ccc(-c2nc(-c3ccccc3C)no2)cc1[N+](=O)[O-],inactive: 88%
4,c1ccc(-c2cc3ncc4c(n3n2)-c2ccccc2OC4)cc1,inactive: 71%
5,COc1ccc(C2=C(C(C)=O)Sc3nnc(-c4ccc(Cl)cc4)n3N2C(C)=O)cc1OC,inactive: 75%
6,Cc1ccc(S(=O)(=O)c2cnc(SCC(=O)Nc3ccc4c(c3)OCCO4)[nH]c2=O)cc1Cl,inactive: 71%
7,CCCn1c2ccccc2c2cnn(CC(=O)NCCCN3CCCCC3)c(=O)c21,inactive: 78%
8,CCOc1ccc(NC(=O)c2sc3nc4c(c(-c5ccccc5)c3c2N)C(=O)CC(C)(C)C4)cc1,inactive: 74%
9,O=C(NCCc1ccccc1)c1ccc2nc(N3CCCCC3)sc2c1,inactive: 81%
10,Nc1nonc1-n1nnc(C(=O)N=Nc2c(O)[nH]c3ccc(Br)cc23)c1-c1ccccc1,inactive: 119%
11,Cc1ccccc1NC(=O)c1cn(-c2ccccc2)nc1-c1ccccc1,inactive: 92%
12,Cc1ccccc1-c1ccnc2[nH]n(-c3ccccc3)c(=O)c12,inactive: 78%
13,O=S(=O)(NCC(c1ccco1)N1CCOCC1)c1ccc(Br)cc1 (stereo not drawn),inactive: 77%
14,Cc1ccc2oc(C(=O)N(Cc3ccc(N(C)C)cc3)CC3CCCO3)c(C)c2c1 (stereo not drawn),inactive: 107%
15,CCOC(=O)c1c(NC(=O)CSc2cn(CCNC(=O)c3cccc(C(F)(F)F)c3)c3ccccc23)sc2c1CCC2,inactive: 82%
16,COC(=O)Cn1cc(C2C(C#N)=C(N)OC3=C2C(=O)CC(C)(C)C3)c2ccccc21 (stereo not drawn),inactive: 103%
17,CC(NC(=O)C1CCN(S(=O)(=O)c2ccc(F)cc2)CC1)c1ccccc1 (stereo not drawn),inactive: 127%
18,CC1CCC(N2CC(=O)N(C3CCCCC3)C(c3ccc(Cl)cc3)C2=O)CC1 (stereo not drawn),inactive: 71%
19,O=C(Nc1ccc(Br)cc1)c1cc(-c2cccs2)nc2ccccc12,inactive: 94%
20,COc1cccc(C(=O)Nc2nc3ccc(S(=O)(=O)N4CCCC4)cc3s2)c1,inactive: 71%
21,CC(C)c1ccc(NC(=O)CSC2=Nc3ccccc3C3=NC(CC(=O)NCc4cccs4)C(=O)N23)cc1 (stereo not drawn),inactive: 85%
22,CC(=O)Nc1ccc(NC(=O)CSc2nccn2Cc2ccc3c(c2)OCO3)cc1,inactive: 72%

row,SMILES,survival
1,COc1cc(NC(=O)CSc2ncc3c(n2)-c2ccc(Cl)cc2N(Cc2ccccc2)S3(=O)=O)cc(OC)c1,inactive: 65%
2,Cc1ccc(NS(=O)(=O)c2ccc(-c3cnc(C4CC4)o3)cc2)cc1N(C)C,inactive: 127%
3,COc1ccc(-c2cc(C(=O)Oc3ccc(C)cc3)c3ccccc3n2)cc1,active: 4%
4,CC(C)Oc1ccc(C(=O)N2CCC(c3nc4ccccc4o3)CC2)cc1,inactive: 119%
5,C=CCn1c(=O)[nH]c(=O)n(CC=C)c1=O,inactive: 111%
6,CCOc1ccccc1CNC(=O)CCc1c(C)nn(-c2ccc(N3CCCCC3)nn2)c1C,inactive: 70%
7,O=C1CSC2(C(=O)N(Cc3ccccc3F)c3ccccc32)N1c1cccc(C(F)(F)F)c1 (stereo not drawn),inactive: 85%
8,O=C(Cn1ncc2c3ccccc3n(Cc3ccc(Cl)cc3)c2c1=O)NCCC1=CCCCC1,inactive: 88%
9,CN(C)CCNC(=O)C1CCN(c2ncnc3c2nc2n3CCCCC2)CC1,inactive: 135%
10,Cc1ccc(NC(=O)CSc2nnc(-c3nnn(-c4ccc(F)cc4)c3C)o2)cc1Br,inactive: 70%
11,COc1ccc(CNC(=O)c2cc3cc4ccc(C)cc4nc3o2)cc1,inactive: 88%
12,O=C(Cc1ccccc1)Nc1c(C(=O)c2ccccc2)oc2ccccc12,active: 7%
13,Cc1nc(-c2cccc(F)c2)sc1CCNC(=O)c1c(F)cccc1Cl,inactive: 94%
14,O=C(/C=C/c1ccccc1)C1=C(O)C(=O)N(CCO)C1c1ccc(F)cc1 (stereo not drawn),inactive: 106%
15,COc1cccc(N2CCN(C(=O)c3cc4c(s3)-c3c(C)cccc3OC4)CC2)c1,inactive: 70%
16,CCCCn1c(=NC(=O)C(C)(C)Oc2ccc(Cl)cc2)c(C(=O)OCC)cc2c(=O)n3ccccc3nc21,inactive: 88%
17,Cc1ccc(NC(=O)CN2C(=O)COc3ccc(S(=O)(=O)N4CCCCCC4)cc32)cc1Cl,inactive: 77%
18,Cc1ccc(OCC(=O)Nc2nonc2-c2ccc(C)c(C)c2)cc1C,inactive: 65%
19,CC1CCCN(CCCNC(=O)c2ccc3c(c2)N(Cc2cccc(Cl)c2)C(=O)c2ccccc2S3(=O)=O)C1 (stereo not drawn),inactive: 99%
20,CC(C)Cc1nn2c(=O)cc(COC(=O)CNC(=O)c3ccc(C(C)(C)C)cc3)nc2s1,inactive: 153%
21,Cc1ccc(C)c(CNC(=O)c2ccc3c(c2)nc2n3CCOC2)c1,inactive: 63%
22,COc1ccccc1C(=O)Nc1cccc(C(=O)OCc2cc(=O)n3nc(C4CC4)sc3n2)c1,inactive: 76%
